Measurements taken from the supplement of paper PMC10126150.
Values marked as one replicate rest on one cluster of the flow cell; about a third of the high ones do not repeat.

Test system: ATP
Assay: switch fluorescence ratio, 500 uM ATP over buffer (Cy3 cluster intensity, sum of 5 cycles each) (fold (ratio)); higher = stronger signal-on switching upon ATP binding; sequences stand for … in TCGTCGGCAGCGTCAGATGTGTATAAGAGACAGTTTTTTTTTTTTTTTTTTTTTTTTT…TC
Conditions: aptamer strand: ATP DNA aptamer (quencher-CACCTGGGGGAGTATTGCGGAGGAAGG + anchor), 100 nM annealed; ATP concentration: 500 uM; one replicate
Procedure, shortened: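 Cy3-labelled switching-strand clusters on a modified Illumina MiSeq flow-cell were annealed to 100 nM quencher-labelled ATP aptamer, imaged in selection buffer, then imaged after 15 min with 500 uM ATP at 22 °C. Five buffer/ATP cycles ran, with NaOH stripping and re-annealing between them. The fluorescence ratio is summed target-cycle over summed buffer-cycle Cy3 intensity per cluster, averaged per switch-domain sequence. Clusters outside 100-1000 RFU were excluded.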
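Further: ATP exposure 15 min at 22 °C before imaging.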

Sequence	switch fluorescence ratio
TCAGCTTATC	1.12
AAGTTAGTCC	1.06
TGTGCTTTGG	1
ATCTATATGT	1
CAGATCTAGT	0.983
AAGAGCTTAG	1.01
AAAACTCAAG	1.05
TGTAATCTAT	1.04
TAGAGTGTAG	1
CATTTCCAGA	1.05
GACCTTAGTA	0.974
TAAGATTCAT	0.962
TAGTATGTAC	1.06
CCGTTGCGCA	2.12
TAATGTGGG	1
GGGTGCCCCG	1.13
GGGGCCTAAG	1.1
CTTCTTAGAT	1.01
TCGCACATGA	1.64
ACAAGCGCTT	1.04
GTGCCCCGAT	0.96
TTATCAGGCT	0.994
AGGGAAGCCG	1.16
CCGATCAGGA	0.979
GTTTCTGGCG	1.01
AAACCCCGGA	1.12

Sequence	switch fluorescence ratio
CCACATAGGA	1.01
CGATCCGGTA	1.02
TCGTGCATAC	3.26
GGAATTAATC	1.02
CCCATGACGG	1.05
GGTTCTAAGT	1.01
CGGTAAG	1.05
GGAAAGGGAA	1.07
CACAATAGGA	1.1
CCAGTCAGCG	1
AGATATTA	1.01
AGGTCTCGCT	0.967
CTAGTTCGAT	1.03
TACATACTCA	1.34
GCACTAGCTT	1.02
CCTTACTGCT	1.07
GCTTTTAATA	0.99
TGGCAGCCTT	0.999
TTACCGAATT	1.06
TTAACTTCTA	0.981
GTGATGGTTG	0.993
CTCCCCGGAG	1.08
CGTCCACCAT	1.25
GTTGAAGAGA	1.04
GACATGTGCG	1.04
GTCCGAATGG	1.07

Sequence	switch fluorescence ratio
CGTACATCGT	0.961
AACGTCAAGC	1.3
GATTCCACTT	1.05
CGTGAGCTGG	1.01
CAAAACTCGC	0.918
TGCATTGCGT	1.04
ATGCGAGTAG	1
TAACCTGAGG	1.07
AGACATACGC	1.44
CAAACGAATG	1
GGGCCAGGCG	1
TACCAACAGG	1.1
AAATGCGGGT	1
GGGCAGGGAT	0.993
TAGGAAACG	0.983
CTTCCATCCC	1.1
ACAACCATGG	0.976
GCCAAGAGCT	1.03
TTTAGAATTG	1.01
CGCTGGGATG	1.02
AATAATACTT	1.03
ATCTCGGGC	1
TGATGCATCT	1.01
CCACGCCGTT	0.998
AAGGCTACTA	0.998
CAGCAGCACG	1.41

Sequence	switch fluorescence ratio
CATAGCTCGC	0.963
ACTAGTTC	1.03
TGTGTTTGTA	0.998
AGGGGATTGT	1.03
AGATATCGTT	1.01
ACACCATCTT	1.06
TTTTATGTA	0.993
TTGTGATGG	0.986
GCAACTGAGG	1.03
CTGTGGGTAT	1.03
AAAAGCTCAT	0.986
TTTGAAACT	1.04
TTAGTGATT	0.983
AACTAGGCTG	1.04
TCGGACGACG	1.07
TGAATAAGTA	0.982
ATCTGATAG	0.98
TGATGCCTGT	0.979
AGAGGGGGCT	1
GGTTGCCGGG	0.988
CGATGTGACG	1.03
TAGGTCCAAC	0.992
TCATACGGTG	1.04
TGAAGTGGA	1.01
CTGGGTCATT	1.01
AGTCTTTTAA	1.03

Sequence	switch fluorescence ratio
TTATCTCATG	1.02
GTCAAAACAG	1.15
CCCTTCGGGA	2.66
TTTTGCCTCT	0.973
TGGTCGAGGA	1.02
GTCGCCGCCT	1
CCTGAGGGGC	1.08
GTCGGCCGTC	1.02
CAATTTCATA	1.02
AGCTGTTAC	1.81
CTTTCTTGGA	0.992
AAGATAATTG	1.06
GTGTGTGGGT	0.974
TCCGGATAAT	0.998
TAGTAGCATT	1
AGGCTATAGG	1.02
TGGATTT	1.01
GGGGGCTGC	0.935
GGTTGGGTAT	0.993
GAAATGTTCC	1
CCTTCGGATC	3.4
CGCTGCGACT	1.05
AGTAGAGATT	1.02
ATATTGG	1.03
AGCGTTCCGG	1.02
ACGAAAGTTT	1.04

Sequence	switch fluorescence ratio
AGACTCTTAC	1.21
CGGGAAGGAC	1
GCAATGGGTA	1.07
AGGTCAGAA	0.988
AGTCAGCATA	1.3
GGGGATCATT	0.988
AGATTCAATT	0.986
AAGGTCGGCT	0.985
AACGTTTGTC	0.925
AATACGACAT	1.21
TGGGTTTCGG	0.97
CCCCAATGTG	4.35
GTAGACAACA	1.04
GAAGGTTAAA	0.993
TTCTTACCTG	0.99
GGGTTCGACT	1.05
GGGTCCCA	0.952
AACGGTTCAC	1.09
GTGAGAAGGA	1.02
AAAAAAGTAT	1.06
CAATCCCAGC	1.08
ACAGGCATC	1
GCCTTGACTT	0.984
AAGCAGAAGG	0.98
TTCCCCTGGG	1.37
GGCCGTCCT	1.2

Sequence	switch fluorescence ratio
TCAAGGTTGA	0.989
TGTTGTTGG	1.03
GAATCATGAG	1.08
ATAACGTTTG	0.983
AGGGCACTTT	1.06
GAGAAAATTA	1.01
TGCCTAAGAG	1.02
AGGCCTCGTT	1
GATTCACCTG	0.976
CAATGGGATT	1.02
TCGTCGCACG	0.99
GGTTCCGGCA	1
ATAACTAGCG	1.03
TCCCAGTAG	1.28
TTTACATCAC	1.45
TGATCTTTTT	0.982
TTGTGTTGAT	1.06
CGGAAAGGCT	1.03
CTGTATACG	1.03
AAAACGCTGA	1.27
CTTTGGGATG	1.03
GCGGTTAACT	1.02
ATCACGGT	0.979
CCTTCCGTTG	2.73
GATATCATGT	1.02
TTTCTTACAC	1.02

Sequence	switch fluorescence ratio
CGTAAACCAG	1
AATCGCTCGT	1
AAACTTGATA	1.01
TGGGCCGGAG	1.01
TGAACTACTT	1.02
TCCACGTCAG	0.98
AGGTCCTTTG	1
TGGTTAAGCT	1.01
TAGTCGCCTG	0.97
TTTCACGCTG	0.989
TCCCTTTGTG	0.965
GTGCCTCTGT	0.978
ACACTTGACA	1.12
ATGCCCATCG	0.997
TGTGATTGAA	0.971
ATGTTGACAG	1.02
TATAATTGG	0.994
TCGGACGCTG	1.06
CCATTTTTGT	0.972
